Test results reported in article PMC12136788.
Some of the results follow.

B1: ENSG00000184840:stop:overlap|stop_codon|ENSG00000184840|stop_codon|NA|stop_codon (ssRNA)
RNA: GGGAGUUCUACAGUCCGACGAUCCCAUCGGUGUCUGGCAGAUGCGGCACCUCAAGAGCUUCUUUGAAGCCAAGAAGCUUGUGUAGCUGUCCCAGGCGUCACAACCCAUCCUCCCAGGCUGGGGGAGAAAGGACCUCCUGGAACCAACAGAGGAUUGAGCAUCA
B2: chr7:77639488:77639589:+|3pUTR|ENSG00000127947|msi1|FALSE|bound_elsewhere (ssRNA)
RNA: GGGAGUUCUACAGUCCGACGAUCAGUAUUAUUGCCUUAAUGUCUCUUAACCCUGUUACACGCUGCUUGUAGACAUGUUAAUAUAGUAAUACCUUUAUGAUAUAUUGAGUUUAAGGACUACUCUUUUUCUGUUUUAUCAUGUAUCAACAGAGGAUUGAGCAUCA
B3: chr10:101781316:101781432:-|3pUTR|ENSG00000107833|unk|FALSE|unique (ssRNA)
RNA: GGGAGUUCUACAGUCCGACGAUCCCCACCUGCCUGUGAGAAUUGGAGGUUAGUGCCUGAAGCUCAGAGCUACACAUUUUUAAUAGUUUUUACAUUUUUGGAUAAAGGUUGAAAUAAAGUGGUGUGGAGUUUUUGCAGCUCUUGCAACAGAGGAUUGAGCAUCA
B4: chr11:11963431:11963477:-|3pUTR|ENSG00000050165|msi1_unk|FALSE|overlapping (ssRNA)
RNA: GGGAGUUCUACAGUCCGACGAUCUUGACACUGUCCCUCUUUGGCAGUUGCAUUAGUAACUUUGAAAGGUAUAUGACUGAGCGUAGCAUACAGGUUAACCUGCAGAAACAGUACUUAGGUAAUUGUAGGGCGAGGAUUAUAAAUCAACAGAGGAUUGAGCAUCA
B5: chr16:70398910:70399011:-|5pUTR|ENSG00000157350|unk|total|mutant (ssRNA)
RNA: GGGAGUUCUACAGUCCGACGAUCCACUUGCAUGGAACCCAAGUCCCCUGAAGCCCCUGUGCUCUCUGUUGUGAUUGGAGUUCCCGGGCUUCCCCGCUGCCGGGAACGAGGGGCCGCCUCAUUGUCUGCUCAUGAACCACAAGGCAACAGAGGAUUGAGCAUCA
B6: chr19:5558166:5561399:-|three_prime_utr|ENSG00000223573|control|control|control (ssRNA)
RNA: GGGAGUUCUACAGUCCGACGAUCCCAGCUGAUGCACACUGCUUCAGACACUCCUGCUGGAGCCCCAGUCCCUGACAAGGACCUAGGACAUUUUUGCUCCUGCCCAGCCUAUCGGGAGGGAGCCUUGAGCCUUUCAGCUCUGCUCAACAGAGGAUUGAGCAUCA

Target: MSI1 full-length (mouse, UniProt Q61474 1-362)
UniProt Q61474, sequence (Q61474 whole entry): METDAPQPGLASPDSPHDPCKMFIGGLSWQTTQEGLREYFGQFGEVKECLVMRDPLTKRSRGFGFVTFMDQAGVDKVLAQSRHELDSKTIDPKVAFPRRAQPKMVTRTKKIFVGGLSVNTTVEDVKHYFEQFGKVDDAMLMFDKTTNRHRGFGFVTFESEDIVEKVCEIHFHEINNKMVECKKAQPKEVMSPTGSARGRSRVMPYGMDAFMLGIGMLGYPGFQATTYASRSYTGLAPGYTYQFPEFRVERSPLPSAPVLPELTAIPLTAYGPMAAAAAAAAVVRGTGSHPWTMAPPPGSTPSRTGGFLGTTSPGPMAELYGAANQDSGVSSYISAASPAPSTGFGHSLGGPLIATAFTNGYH
Experiment: nsRBNS (natural sequence RNA bind-n-seq); RBNS binding buffer (assumed for nsRBNS): 25 mM Tris pH 7.5, 150 mM KCl, 3 mM MgCl2, 0.01% Triton X-100, 500 ug/ml BSA, 20 U/ml SUPERase-In, 4 C; UNK is unkempt and MSI1 is Musashi-1; names of the RNAs are library labels; protein concentration not given here; high values mean tight binding

Q: How did the binding signal turn out when B1 was run?
A: The binding signal was 0.931 enrichment R.

Q: With B2 as the binder, how does the binding signal read?
A: The binding signal was 1.67 enrichment R.

Q: With B3 as the binder, how does the binding signal read?
A: Its binding signal is 0.865 enrichment R.

Q: How did the binding signal turn out when B4 was run?
A: The binding signal was 1.59 enrichment R.

Q: How did the binding signal turn out when B5 was run?
A: The binding signal was 0.446 enrichment R.

Q: For B6, which binding signal is on record?
A: The binding signal was 0.438 enrichment R.
